Experimental data as given in PubChem BioAssay AID2326 (National Center for Advancing Translational Sciences (NCATS), 2010).
The campaign covered roughly 270,000 compounds. About 1,100 (0.41%) were called active. Roughly 3% stayed inconclusive and do not appear here. The call rests on the fitted dose curve. A structure can be active in one record and inactive in another. Not every entry of the source has a single result; some have several. The other results are left out here. The source may hold further records. Values that stand side by side repeat one measurement (runs, samples, wells, individuals or studies). Brackets tell where a record comes from. A, B and so on number the origins entry by entry.

Assay: qHTS Assay for Inhibitors of Influenza NS1 Protein Function; further: actives are rising curves; nearly all actives have a fitted effect of over 50% in size
Details: series mostly up to 46.1 µM
Excerpt: NIH Chemical Genomics Center [NCGC]
NIH Molecular Libraries Probe Centers Network [MLPCN]
Assay Submitter (PI): Daniel Engel
Influenza is a world-wide public health problem and emerging forms of the virus have the potential to cause a pandemic of equal or greater magnitude to the outbreaks recorded in 1918, 1957 or 1968. Vaccine development is proceeding and there also exist two classes of anti-influenza compounds. However these therapeutic modalities are neither fully effective nor widely enough available to fulfill global needs. In addition their potential usefulness against newly emergent strains is not known. Efforts are needed to develop novel agents against influenza virus, including broad-spectrum agents. Identification of small molecules that inhibit NS1 function either directly or by interfering with specific cellular pathways may be a key to increasing our defense against the virus.
We have miniaturized and optimized a cell based assay in which NS1 from influenza A is expressed in the budding yeast S. cerevisiae. NS1 is a multi-functional protein that counters the host innate immune response and facilitates viral versus cellular gene expression. Expression of NS1 causes a pronounced slow growth phenotype in yeast due to its intrinsic molecular activities. […]
9. Read plate using Viewlux protocol for optical density 600 (OD600) using excitation filter 600nm.
Potency means the concentration at half of the fitted maximal effect.

Compound | Potency
O=C(Cn1c(=O)sc2ccccc21)Nc1nc2c(s1)CCCC2 | inactive [sample A] and active: 1 µM [sample B]
